This note sets out measurements from patent EP2149585A1 (Novartis Vaccines and Diagnostics, Inc., dated 2010).

In one experiment the target is T1, TRAF2 (human, UniProt Q12933 2-501).
T1 construct: Co-precipitated from lysates of normal human B cells
T1 sequence (looked up): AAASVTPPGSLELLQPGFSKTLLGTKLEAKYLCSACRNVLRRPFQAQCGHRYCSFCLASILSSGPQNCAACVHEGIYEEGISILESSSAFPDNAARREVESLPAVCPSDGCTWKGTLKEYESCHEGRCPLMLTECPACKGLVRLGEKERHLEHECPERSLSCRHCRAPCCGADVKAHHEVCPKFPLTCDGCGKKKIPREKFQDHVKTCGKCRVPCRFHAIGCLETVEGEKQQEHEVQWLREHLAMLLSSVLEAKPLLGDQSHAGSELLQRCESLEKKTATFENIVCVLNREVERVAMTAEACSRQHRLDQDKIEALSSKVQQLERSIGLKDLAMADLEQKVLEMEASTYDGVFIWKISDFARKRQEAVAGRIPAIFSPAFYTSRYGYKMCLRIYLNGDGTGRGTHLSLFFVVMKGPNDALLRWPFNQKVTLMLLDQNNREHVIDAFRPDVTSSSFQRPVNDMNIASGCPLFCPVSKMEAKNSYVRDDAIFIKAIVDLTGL
In words: immunoprecipitation of CD40 from normal human B cells, Western blot with anti-TRAF2 mAb. (In general: Immunoblotting shows a protein as a band on a membrane.)

For the next experiment, the target named is T2, TRAF3 (human, UniProt Q13114 1-568).
T2 construct: Co-precipitated from lysates of normal human B cells
T2 sequence (looked up): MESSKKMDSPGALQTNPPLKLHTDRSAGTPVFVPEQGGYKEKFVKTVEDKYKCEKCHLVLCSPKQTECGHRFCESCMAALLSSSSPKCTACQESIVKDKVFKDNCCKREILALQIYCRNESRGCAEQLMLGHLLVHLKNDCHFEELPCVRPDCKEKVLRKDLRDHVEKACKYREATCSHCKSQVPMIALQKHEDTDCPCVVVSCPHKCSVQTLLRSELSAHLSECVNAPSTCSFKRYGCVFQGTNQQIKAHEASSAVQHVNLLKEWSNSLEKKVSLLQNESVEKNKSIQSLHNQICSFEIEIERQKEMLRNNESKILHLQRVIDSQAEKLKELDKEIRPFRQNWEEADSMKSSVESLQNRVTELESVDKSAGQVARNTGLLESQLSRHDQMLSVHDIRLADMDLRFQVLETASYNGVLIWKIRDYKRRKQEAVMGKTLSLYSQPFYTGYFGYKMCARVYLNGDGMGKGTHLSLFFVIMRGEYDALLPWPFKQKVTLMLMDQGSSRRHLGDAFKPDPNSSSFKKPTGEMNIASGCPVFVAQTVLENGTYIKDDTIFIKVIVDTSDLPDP
Nature of the experiment: immunoprecipitation of CD40 from normal human B cells, Western blot with anti-TRAF3 mAb.

B1: human CD40 on the cell surface (receptor)
chain: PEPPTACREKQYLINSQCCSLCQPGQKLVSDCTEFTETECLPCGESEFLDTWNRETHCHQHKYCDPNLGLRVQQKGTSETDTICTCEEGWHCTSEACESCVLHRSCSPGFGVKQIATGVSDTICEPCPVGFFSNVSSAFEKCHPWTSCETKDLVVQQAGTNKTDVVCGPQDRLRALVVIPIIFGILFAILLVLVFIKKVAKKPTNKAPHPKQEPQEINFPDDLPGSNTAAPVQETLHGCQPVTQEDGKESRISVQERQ
notes: CD40 on Ramos cells, normal human B cells/PBMC, NHL and CLL cells; also called cell surface CD40; cell-surface CD40
In the case of B1, the binding result in the experiment with TRAF2 and in the experiment with TRAF3 was “binds” throughout.
